Experimental data reported in the RNAGym collection of RNA variant scans (doi:10.1093/nar/gkz1192).
The source gives no read counts; variants with many changes may rest on few reads.

B1: CPEB3 Ribozyme (parent)
chain: UAACAGGGGGCCACAGCAGAAGCGUUCACGUCGCAGCCCCUGUCAGAUUCUGGUGAAUCUGCGAAUUCUGCUGUAUAUCUC

Variants of: B1
Experiment: self-cleavage, relative activity (ratio to wild type); higher = more cleavage; in vitro, sequencing
Summary of the method: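 After error-prone PCR and barcoding, CPEB3 ribozyme mutant libraries were transcribed with T7 RNA polymerase at 37°C for 5 hours, then given 15 min with DNase I before an EDTA stop, and they cleaved during both steps. Reverse transcription with template switching preceded Illumina sequencing. Relative activity divides a variant's cleaved/total read fraction by the unmutated ribozyme's. At least 5 reads were required per variant, and three batches were averaged.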

Variant | self-cleavage
UAACAGGGGGCCACAGCAUAAGCGUUCACGUCGCAGCCCCGGUCAGAUUCUGGUGAAUCUGCGAGUACUGCUGUUUAUCUC | 0.19
UAACAGGGGGCCACAGCAGCGGCGUUCUCGUCGCAGCCCCUGUCAGAUUCAGGUGCAUCUGCGAAUUCUGCUGUGUAUCUC | 0.06
UAACAGGGGGCCACAGCAAAAGCGUUCACGUCGCAGCCCCUGUAAGAUUCUGGUGGAUCUGCGAAUUCUGCUGUAUAGCUC | 0.15
UAACAGGGGGCCACAGCAUAAGCGUUCACGUCGCGGCCCCUGUCAGAUUCUGGCGAAUCUGCGAAUUCUGCUGUAUACCUC | 0.34
UAACAGGGGGCCACAGCAUAAGCAUUCACGUCGCAGCCCCCGUCAGAUUCUGGAGAAUCUGCGAAUUCUGCUGUAUAUCUC | 0.25
UAACAGGGGGCCACAGCAUAAGCGUUCACGUCGCAGCCCCUGUCAGAUUCUGGUAAGUCCGCGAAUUCUGCUGUAUAUCUC | 0.11
UAACAGGGGGCCACAGCAAAAGCGUCCACGCCGCAGGCCCUGUCAGAUUCUGGUGAAUCUGCGAAUUCAGCUGUAUAUCUC | 0.06
UAACAGGGGGCCACAGCACAAGCGUUCACGUCGCAGCCCCUGUCAGAUUCUGGUGAAUCUGCGAAUUCCGCCGUAUAUCUC | 0.15
UAACAGGGGGCCACAGCAUAAGCGUUCACGCCGCAGCCCCUGUCAGAUUCUGGUGUAUCUGCGAAUUCUGCUGUAUAUCUC | 0.35
UAACAGGGGGCCACAGCAGCGGCGUUCACGUCGCAGCCCCUGUCAGACUCUGGUGAAUCUGCGAAUUCUGCUGUAUAUCUC | 0.24
UAACAGGGGGCCACAGCACAAGCGUUCACGUCGCGGCCCCUGUCAGAUUCCGGUGAAUCUGCGAAUUCUGCUGUAUUCCUC | 0.51
UAACAGGGGGCCACAGCAUAAGCGUUCACGUCGCAGCCCCCGUCAGAUUCUGGUGAAUCUACGAACUCUGCUGUAUAUCUU | 0.15
UAACAGGGGGCCACAGCAUAAGCGUUCACGUCGCAGCCCCUGUCAGAUUCUGGUGAAUCUGCGGACUCUGCUGUAUACCUC | 0.12
UAACAGGGGGCCACAGCACAAGCGUUCACGUCGCAGCCCCUGUCAGAUUCUGGUGAACCUGCGAAUUCUGCAGUACGUCUC | 0.07
UAACAGGGGGCCACAGCACAAGCGUUCACGUCGCAGCCCCUGUCAGGUUCUGGUGAAUCUGCGGAUUCUGCUGAAUAUCUC | 0.09
UAACAGGGGGCCACAGCACAAGCGUUCACGACGCAGCCCCAGUCAGAUUCUGGUGAAUCUGCGAAUUCUGCUGUAUAUCUC | 0.26
UAACAGGGGGCCACAGCACAAGCGUUCACGUCGCAGCCCCUGUCAGAUUCUGGUGGAUCUGCGAAUUCAGCCGUAUAUCCC | 0.24

Variant | self-cleavage
UAACAGGGGGCCACAGCAUAGGCGUUCACGUCGCAGCCCCUGACAGAUUCUGGUGAAUCUGCGAAUUCUGCUGUAUAUCUC | 0.29
UAACAGGGGGCCACAGCACAAGCGUUCACGUCGCAGCCCCUGUCAGAUUCCGGUGGAUCUGCGAACUCUGCUGUAUAUCUC | 0.13
UAACAGGGGGCCACAGCAGCGGCGUUCACGUCGCAGCCCCUGUCAGAUUCUGGUGAAUCCGCGAAUUCUGCUGUAUAUCUC | 0.06
UAACAGGGGGCCACAGCAAAAGCGUUCACGUCGCAGCCCCUGUCAGAUUCGGGUGAAUCUGCGAAUUCUGCAGUAUAUCUC | 0.07
UAACAGGGGGCCACAGCACAAGCGUUCACGUCGCAGUCCCUGUCAGAUUCUGGUGAGUCUGUGAAUUCUGCUGUAUAUCUC | 0.1
UAACAGGGGGCCACAGCAUAAGCGUUCACGUUGUAGCCCCUGUCAGAUUCUGGUGAAUCUGCGAAUUCUGCUGUAAAUCUC | 0.18
UAACAGGGGGCCACAGCAUAAGCGCUCACGUCGCAGCCCCUGUCUAAUUAUGGUGAAUCUGCGAAUUCAGCUGUAUAUCUC | 0.09
UAACAGGGGGCCACAGCAAAAGCGUCCACGUCGCAGCCCCUGUCAGAUUCUGGUGAAUCUGCGAAUUCUGCUGUAUAUCCC | 0.48
UAACAGGGGGCCACAGCAAAAGCGUUCACGUCGCAGCCCCUGUCAGAUACUGGUGAAUCUGCGAAUUCUGCUGUAUAUCCC | 0.11
UAACAGGGGGCCACAGCAUAAGCGUUCACGUCGCAGCCCCUGUCAGAUUCUGGUGAAUCUGCGAAUCCUGCUGUAUACCUC | 0.08
UAACAGGGGGCCACAGCAUAAGCGUUCACGACGUAGCCCCUGUCAGAUUCUAGUGGAUCAGCGAAUUCUGCUGUAUAUCUC | 0.07
UAACAGGGGGCCACAGCACAAGCGUUCCCGUAGCUGCCCCUGUCAGAUUCUGGUGAACCUGCGAAUUCUGCUGUAUAUCUC | 0.15
UAACAGGGGGCCACAGCACAAGCGUUCACUUCGCAGCCCCUGUCAGAUUCUGGUGAAUCUGCGGAUUCUGCUGUACAUCUC | 0.18
UAACAGGGGGCCACAGCAAAAGCGUUCACGUCACAGCCCCUGUCAGAUUCUGGUGGAUCUGCGAAUUCUGCUGUAUAUCCC | 0.07
UAACAGGGGGCCACAGCAUAAGCGUUCACGUCGCGGCCCCUGUCAGAUUCUGGUGAAUCUGCGAAUUCAGCUGUAUAUCUC | 0.29
UAACAGGGGGCCACAGCACAUGCGUUCACGUCGCAGCCCCUGUCAGAUUCUGGUGAAUCUGCCAAUUCUGAUGUAUAUCUC | 0.03
UAACAGGGGGCCACAGCAUAAGCGUUCACGUCGCAGCCCCUGUCAGAUUCAGGGGAAUCUGCGAAUUCUGCUGUAUAUCUC | 0.13
